# Measurements as given in the RNAGym collection of RNA variant scans (doi:10.7554/elife.90254).
# The source gives no read counts; variants with many changes may rest on few reads.
# B1: LINE1-mini (parent)
# chain: GGCAGAGCUCAACACAGCGUGGCAAAGUGGCUGUGGCUAGACUGCC
# Variants of: B1
# Assay: self-cleavage, relative activity (ratio to wild type); higher = more cleavage; in vitro, sequencing; the parent is a self-cleaving ribozyme
row,Variant,self-cleavage
1,GGCAGAGCUCAACACAGCGAGGCAAAGUGGCGGUGGCUAAACUGCC [U20A U32G G40A],0.05
2,GGCAGAGCUCAACACAGAGUUGCAAAGUUGCUGUGGCUAGACUGCC [C18A G21U G29U],1.96
3,GGCAGAACUCAACACAGCGUGGCAGAGUGCCUGUGGCUAGACUGCC [G7A A25G G30C],0.09
4,GGCAGCGCUCAACACAGCGAGGCAAAGUGGCUGUGGCCAGACUGCC [A6C U20A U38C],0.14
5,GGCAUAGUUCAACACAGCGUGGCAAAGUGGCUGUGGCUACACUACC [G5U C8U G40C G44A],0.01
6,GGCAAAGCUCAACACAGCGUGGCAACGUGGCUGAGGCUAGACUGCC [G5A A26C U34A],0.23
7,GGAAGAGCUCAAUACAGCGUGGCAAAGGGGCUGUGGCUAGACUGCC [C3A C13U U28G],0.98
8,GGCAGAGCUCAACACAGCGUGGCAAAGUGGCCGUGCCUAGACUUCC [U32C G36C G44U],0
9,UGCAGAGCUCAACAGAGCGUGGCAGAGUGGCUGUGGCUAGACUGCC [G1U C15G A25G],0.05
10,GGCAGAGCUCAACACAGCGUUGCCAAGUGUCUGUGGCUAGUCUACC [G21U A24C G30U A41U G44A],0.08
11,GGCAGAGCUUAACACAGCGUGGCAAAAUGGCUGUGGCUACAGUGCC [C10U G27A G40C C42G],0.03
12,GGCAGAGCUCAAUACAGCGUGUCAAAGUGGUUGUGGCUACACUGCC [C13U G22U C31U G40C],0.12
13,GUCAGAGAUCAACACAGCGCUGCAAAGUGGCUGUGGCUAGACUGCC [G2U C8A U20C G21U],0
14,GGCAGAGCUCAUCACAACGUGGCAAAGUGGCUGUGGAUAGACUGCC [A12U G17A C37A],0.06
15,GGCAGAGCUCAACGCAGCGUCACAAAGUGGCUGUGGCUACACUGCC [A14G G21C G22A G40C],0.05
16,GGCAGAGCUAAACACGGCGUGGCAAAGUGGCUGUGGCUAGACUCCC [C10A A16G G44C],0.05
17,GGCAGAGCUCAACACAGCGUGGCAACGUGGCUAUGGCUACACUGCC [A26C G33A G40C],0.15
18,GGCAUACCUCAACAAAGCGUGGCAAAGUGGCUGUGGCUAGACUGCC [G5U G7C C15A],0.07
19,GGCAGAGCUCAAUACAGCGUGGCAAAGUGGCUGUCGCUAGACGACC [C13U G35C U43G G44A],0.02

row,Variant,self-cleavage
1,GUCAAAGCUCAACACAGCGUGGCAGAGUGGCUGUGGCUAUACUGCC [G2U G5A A25G G40U],0.02
2,GGCAGAGCUCAACAAAGCUUGGCAAAGUGGCUGUGGCUAGCCUGCC [C15A G19U A41C],0.05
3,CGCAAAGCUCAACACAGCGUGGCAAAGUGGCCGUGGCUAGACUCCC [G1C G5A U32C G44C],0.04
4,UGCAGAGCUCAACACAGCGUGGCAAAGUGGCCGAGGCUAGACUGCC [G1U U32C U34A],0
5,GGCAGAGCUCAACACAGCGUGGUCAAGUGGCUGUGGCUUGACUGCC [C23U A24C A39U],0.89
6,GGCAGCGCUCAACACUGCGUGGCAAAGUGGCUGCGGCUAGACUGCC [A6C A16U U34C],0.02
7,GGCAGAGCUCAACAAAGCGUGGCAAAGUGGCUGCGGCAAGACUGCC [C15A U34C U38A],0.05
8,GGCAGAGCUCAUUACAUCUUGGCAAAGUGGCUGUGGAUAGACUGCC [A12U C13U G17U G19U C37A],0.06
9,GGCAGAGGUCAUCACAGCGUGGCAAAGUAGCUGUGGCUAGACUGCC [C8G A12U G29A],0.07
10,GGCAGAGCUCAACACCGCGUGGCAAAGUGGCUGUGGGUAAACUGCC [A16C C37G G40A],0.08
11,GGCAGACCUCAAGACAGCGUGGUAAUGUGACUGUGGCUAGACUGCC [G7C C13G C23U A26U G30A],0.01
12,GGCAGAGCUCAACAUAGCGUGGCAAAAUGGCUGUAGCUAGACUGCC [C15U G27A G35A],0.6
13,GGCAGAGCUCAACACAGAGUGGCAAAGUGACUGUGGCUAGACCGCC [C18A G30A U43C],0.06
14,GGCAGAGCUCAACACAACGUUGCAAAGUGGCUGUGGCCAGACUGCC [G17A G21U U38C],0.07
15,CGCAUAGUUCAACACAGCGUGGCAAAGUGGCUGUAGCUAGACUGCC [G1C G5U C8U G35A],0.02
16,GGAAGAGCUCAGUACAGCGUGGCAAAGUGGCUGUGGCUAGACUGCU [C3A A12G C13U C46U],0.08
17,GGCACCGCUCAACUCAGCGUGGCAAAGGGGCUGUGGCUAUACUGCC [G5C A6C A14U U28G G40U],0.03
18,GUCAGAGAUAAACACAGCGUGGCAAAGUAGCUGUGGCUAGACUGCC [G2U C8A C10A G29A],0.01
19,GGCAGAGCUCAACACAGCAUGGCAAAGUGGCUGUGGCUAGACGGUC [G19A U43G C45U],1.63

row,Variant,self-cleavage
1,GGCAGAGCUCAACACAGCGUGGCAAACUCGCUGUGGCCAGACUGCC [G27C G29C U38C],0.15
2,CGCAGAGUGCAACACAGCGUGGCAAAGUGGCUCUGGCUAGACUGCC [G1C C8U U9G G33C],0.02
3,AGCAGAGCUCAACACAGCGUGGCAAAGUGGCUGAGGGUUGACUGCC [G1A U34A C37G A39U],0.04
4,GGCAGAGGUAAGCACAUCGUGGCAAAGUGGCUGGGGCUAGGCGGGC [C8G C10A A12G G17U U34G A41G U43G C45G],0.01
5,GGCAGAGCUCUACCCAGCGUUGCAAAGUGGCUGUGGCUAGACUGCC [A11U A14C G21U],0.02
6,GGCAGAGCUCAACACAGCGUGGCUAAGUGGCUGUGGCUAGACGGAG [A24U U43G C45A C46G],0.05
7,GGCAGAGCUCAACACAGCGUGGCAAAGUGGCUGCGGCUAUACUCCC [U34C G40U G44C],0.09
8,GGCAGGGCUCAACACAGCGUCGCAAAGUGGCUGGGGCUAGACUGCC [A6G G21C U34G],0.06
9,GGCAGCGCUCAACACAGCGUGGCAAAGUGGCUGUGGCUAGUCUGCG [A6C A41U C46G],0.07
10,GGCAGAGAUCAACACCGCGUGGCAAAGUGGCUGUGGCUAGACUCCC [C8A A16C G44C],0.06
11,GGCAGAGCUCAACGCAGCGUGGCAAAGUUGCUGUGGCUAGACUUAC [A14G G29U G44U C45A],0.02
12,GGCACUGCUCAACACUGGGUGGGACCGUGGCUGUGGCUAGACUGCC [G5C A6U A16U C18G C23G A25C A26C],0.03
13,GGCAGAGCUCAACACAGCGUGGCAAAGCGGCUGUGGCUACUCUGCC [U28C G40C A41U],0.05
14,GGCAGCGCUCCACAAAGCGUGGCAACGUGGCUGUGGCUAGACUGCC [A6C A11C C15A A26C],0.01
15,GGGACAGCUCAACACAGCGUGCCAAAGUGGCUGUGGCUAGAAUGCC [C3G G5C G22C C42A],0.31
16,UGCAGAGCUAAACACAGCGUGGCAAAGUGGCUGUGGCUAGACUACC [G1U C10A G44A],0.01
17,GGCAGAGCUCAAAGCAGCGUGGCAAAGUGUCUGUGGCUAGACUGCC [C13A A14G G30U],0.07
18,GGCAGAGCUCAACAGAGCGUGGCAAAGUGGCUGUGGUUAGACUUCC [C15G C37U G44U],0.02
